Reference: the supplement of paper PMC3334620
Over roughly 33,000 sequences, “E-score (-0.5 to 0.5)” has its median near -0.035; the highest 2% begin near 0.35. The list shows a part of the results.

Target: T1, Pdr3 (UniProt P33200)
T1 sequence: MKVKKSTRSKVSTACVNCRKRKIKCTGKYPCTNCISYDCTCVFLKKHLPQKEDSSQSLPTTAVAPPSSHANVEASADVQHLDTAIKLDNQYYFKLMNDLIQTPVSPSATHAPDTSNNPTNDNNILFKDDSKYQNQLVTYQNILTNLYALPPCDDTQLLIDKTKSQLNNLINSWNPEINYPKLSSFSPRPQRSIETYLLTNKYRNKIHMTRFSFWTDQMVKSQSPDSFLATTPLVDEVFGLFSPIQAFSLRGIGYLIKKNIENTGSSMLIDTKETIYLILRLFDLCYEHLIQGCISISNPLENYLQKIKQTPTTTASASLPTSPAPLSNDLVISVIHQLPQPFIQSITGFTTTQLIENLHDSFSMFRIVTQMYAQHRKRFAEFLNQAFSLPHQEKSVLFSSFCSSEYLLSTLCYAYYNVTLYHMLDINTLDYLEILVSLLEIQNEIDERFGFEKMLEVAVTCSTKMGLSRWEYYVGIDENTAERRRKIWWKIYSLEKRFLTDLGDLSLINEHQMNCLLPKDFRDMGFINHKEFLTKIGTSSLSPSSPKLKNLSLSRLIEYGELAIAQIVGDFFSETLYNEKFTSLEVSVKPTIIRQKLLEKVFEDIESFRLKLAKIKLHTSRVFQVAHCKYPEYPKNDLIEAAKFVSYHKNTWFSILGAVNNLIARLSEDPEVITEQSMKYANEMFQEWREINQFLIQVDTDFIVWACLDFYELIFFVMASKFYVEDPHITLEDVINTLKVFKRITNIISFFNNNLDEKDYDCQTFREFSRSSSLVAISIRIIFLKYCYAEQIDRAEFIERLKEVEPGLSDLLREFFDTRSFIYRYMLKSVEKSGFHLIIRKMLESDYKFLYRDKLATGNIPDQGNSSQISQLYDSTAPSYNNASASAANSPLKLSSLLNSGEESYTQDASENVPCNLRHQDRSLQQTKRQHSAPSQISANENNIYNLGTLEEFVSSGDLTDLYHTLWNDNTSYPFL
Test: PBM E-score (8-mer binding enrichment) (E-score (-0.5 to 0.5)); higher = stronger / more preferred TF binding; most listed sequences are background and not binding sites
Settings: protein concentration: 200 nM; construct: GST-full length
Method in brief: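 Masliner-normalised scans of fluorescent anti-GST signal were the basis for scoring. That signal came from GST-tagged yeast transcription factors applied at about 100-200 nM to double-stranded universal all-10-mer Agilent arrays on fresh or once-stripped slides. Each ungapped eight-base word, pooled with its reverse complement, received an E-score from the Universal PBM Analysis Suite.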

Row | Sequence | PBM E-score
1 | AATGCTCT | -0.165
2 | CCCTCCTA | -0.135
3 | GCAAATAC | -0.177
4 | GACTGAGC | -0.183
5 | CATCATAC | 0.0298
6 | ATTATCGA | -0.0732
7 | GGGGTCGA | -0.0275
8 | ATATCGAG | 0.043
9 | ACGAAGCA | -0.126
10 | AAGCATAG | -0.32
11 | ACAGTTGG | -0.133
12 | GATGGAAC | 0.06
13 | GCCTAGTA | -0.163
14 | AGAGTTAC | -0.193
15 | CATTATAA | 0.0802
16 | AATGTTTG | -0.0916
17 | GGTAACGA | -0.0165
18 | ACGTATGA | -0.0247
19 | ACGATTTA | 0.0861
20 | GGAATCCA | 0.312
21 | CGGGGCAC | 0.00786
22 | CCGGAATC | 0.471
23 | CTACGGCC | 0.0985
24 | CGTTCCCC | 0.146
25 | TGAATGCA | -0.0756

Row | Sequence | PBM E-score
26 | ACCCTACA | -0.144
27 | CCGCAGGC | 0.167
28 | CATTCGAC | 0.0517
29 | AAGCAGAA | -0.00953
30 | AATTGGGC | -0.131
31 | CCTAGTGC | -0.0662
32 | AAGCCACT | -0.163
33 | ACCCCTCC | -0.0281
34 | ACGAGACT | -0.309
35 | CTAGCAAA | -0.187
36 | AAGGAGAT | -0.0495
37 | AATATCAT | 0.0231
38 | ACTCAACT | 0.0159
39 | TCCACAAA | 0.0317
40 | AATCCTAA | -0.208
41 | AGACAGTA | -0.0481
42 | AGGGGTAG | -0.104
43 | GATTTTCA | 0.0207
44 | GAAAGCTA | 0.0324
45 | AACGTCTG | 0.0352
46 | ACCCGAAC | 0.25
47 | AGGGGTTG | -0.141
48 | ATGGTACA | -0.101
49 | TGCGACAA | -0.166
50 | GAAGAAGC | -0.00109

Row | Sequence | PBM E-score
51 | ATTAGGGG | -0.0731
52 | CGCCCCCA | -0.129
53 | GCTACTAA | -0.153
54 | ATAGCATA | -0.0191
55 | GGAGCCAA | -0.0352
56 | GCCGGGGA | 0.2
57 | AACGCGGA | 0.358
58 | AGGTACAC | -0.0387
59 | TAGACCCA | -0.15
60 | CACCCACA | -0.0782
61 | CCACGGGA | 0.325
62 | GATTATCC | 0.181
63 | CCGCCAGG | -0.0705
64 | CAGTGAGC | -0.191
65 | TCCTCCCA | 0.0109
66 | AGGAAGGG | -0.296
67 | CTCTAGCA | -0.342
68 | AATCTTGG | 0.0761
69 | CGGCCGTA | 0.31
70 | ACTGTAGC | -0.197
71 | AAAAAAAA | 0.147
72 | CGCAGGCA | -0.0843
73 | ATACGTAA | -0.23
74 | CCAACCAG | -0.158
75 | CAAATGGG | -0.173

Row | Sequence | PBM E-score
76 | GGAGCCAC | -0.0215
77 | ACTATTAT | 0.0352
78 | ACTGGTTC | 0.107
79 | CCGCTGCG | 0.256
80 | ATGGTCTC | 0.0604
81 | ATCGAGCA | 0.108
82 | CCGACACG | 0.0439
83 | ATGGGTGA | 0.0373
84 | CTCTCTAC | -0.161
85 | GGGCACCA | -0.0344
86 | CGGTCGCA | -0.068
87 | GTTCCACA | 0.0178
88 | CACGCCGA | 0.181
89 | AATCCGGG | 0.354
90 | ACCCTGTC | -0.0029
91 | AGTAAGTA | 0.0332
92 | CGGTCCCA | 0.0844
93 | CCGGCGAA | 0.341
94 | AATAGATA | 0.0256
95 | GTCACGTA | -0.263
96 | CTCGCGAG | 0.192
97 | AATGTTGT | -0.0708
98 | CTCTCCCC | 0.106
99 | CGTCACGA | -0.0229
100 | CGGCTACA | 0.00776

Row | Sequence | PBM E-score
101 | GCTTTTCA | -0.124
102 | AGGCACTC | -0.0926
103 | ACACCCTG | -0.0647
104 | AATTCTCG | -0.0765
105 | CCCCCGTC | -0.0797
106 | GGCATCTA | -0.0141
107 | GGACGTCA | 0.00181
108 | ATTCTTAG | -0.206
109 | ACAAACTA | -0.0294
110 | AGAACGCC | -0.00261
111 | AATGTAAT | 0.187
112 | CCGCGTCC | 0.251
113 | GATTAACC | -0.0685
114 | AATGCAAA | -0.0106
115 | GGCATGAA | 0.0257
116 | GCTATCAA | 0.0211
117 | AGGTTATG | -0.117
118 | CGCGCGTA | 0.143
119 | AACAAATC | -0.01
120 | GTCTACCA | -0.252
121 | TGTCTCAA | -0.167
122 | AGTTCTCA | -0.014
123 | TATACCAA | 0.00904
124 | CGGCGAAG | 0.154
125 | GTATTGAA | 0.0318

Row | Sequence | PBM E-score
126 | AAAAAATA | -0.0194
127 | TCTGGCAA | 0.0125
128 | GCTACTCC | 0.0101
129 | CTGTAAAA | -0.117
130 | ACAGTATA | -0.046
131 | AGCTCGAT | 0.0398
132 | GATCTGGA | -0.0186
133 | GAAGCTAA | -0.0973
134 | AAGCAGCC | -0.0693
135 | GGAAACGA | 0.106
136 | AATGCCAT | 0.0798
137 | AACCGGTT | 0.282
138 | TCCGCCGA | 0.376
139 | AGAATTAA | -0.199
140 | AACCGGGT | 0.229
141 | ACACAGAA | 0.083
142 | CAGGTCAG | 0.068
143 | GCAGGTCA | -0.137
144 | CGTTGAGA | 0.0308
145 | AGGCTTTC | -0.203
146 | ACAACTTG | -0.0885
147 | CCTAATGA | -0.116
148 | ACTATTGG | -0.164
149 | CTATGTCA | -0.105
150 | ACACCACA | 0.0499

Row | Sequence | PBM E-score
151 | ACCCTTGC | -0.147
152 | ACGGCAAC | 0.0738
153 | GATTATGC | 0.129
154 | GATATAAA | -0.13
155 | AAGAACCT | -0.0892
156 | CCCGAGCG | 0.203
157 | ACGCTCTC | -0.0343
158 | TCATATGA | 0.112
159 | GTAATTAA | -0.0507
160 | GGTATCTA | 0.0155
161 | CTAACGTA | -0.154
162 | AGAGTGAC | -0.249
163 | CGCCATCA | -0.0859
164 | GGGGTGTA | -0.0995
165 | CGGGTTAA | 0.292
166 | AGCACCTA | -0.139
167 | CATGACGG | 0.178
168 | ATAGGTGC | -0.143
169 | TCGTAGAA | -0.203
170 | CATTACAG | -0.142
171 | AGGCATAG | 0.0412
172 | CCCCGGCA | 0.189
